Reference: the antibiotic and cytotoxicity screens of Wong et al. (2023)
Some of the results follow.

Legend:
HSkMC = human skeletal muscle cells; assay: cytotoxicity call (relative viability < 0.9); conditions: 10 µM
HepG2 = assay: cytotoxicity call (relative viability < 0.9); conditions: 10 µM
S. aureus RN4220 = assay: growth inhibition call (relative growth <= 0.2); conditions: 50 µM

Compound | cytotoxicity call (HSkMC) | cytotoxicity call (HepG2) | growth inhibition call (S. aureus RN4220)
COCCNC(=O)C[C@H]1CC[C@H]2[C@@H](COC[C@@H](O)CN2C(=O)Nc2ccccc2OC)O1 | inactive | inactive | inactive
COc1ccc(-c2cnc3c(c2)C(=O)N([C@H](C)CO)C[C@@H](C)[C@@H](CN(C)C(=O)Cc2ccncc2)O3)cc1 | inactive | inactive | inactive
C[C@H]1CCCCO[C@@H](CN(C)C)[C@@H](C)CN([C@@H](C)CO)C(=O)c2cc(NC(=O)Nc3ccc(C(F)(F)F)cc3)ccc2O1 | inactive | active | inactive
COc1ccc(S(=O)(=O)N(C)C[C@H]2Oc3ccc(NC(=O)NC(C)C)cc3C(=O)N([C@@H](C)CO)C[C@H]2C)cc1 | inactive | inactive | inactive
C=CCOC1=N[C@@H]2[C@@H](C(=O)N(C)C(=O)N2C)N1C | inactive | inactive | inactive
CC(C)NC(=O)Nc1ccc2c(c1)C(=O)N([C@H](C)CO)C[C@H](C)[C@H](CN(C)C(=O)Nc1ccccc1)OCCCC[C@H](C)O2 | inactive | inactive | inactive
COC(=O)[C@H]1[C@H](CO)[C@H]2Cn3c(ccc(-c4cncnc4)c3=O)[C@H]2N1C(=O)C1CCC1 | inactive | inactive | inactive
COc1ccc(CN2C[C@H](C)[C@@H](OC)CN(C)C(=O)c3ccc(NC(=O)c4nc5ccccc5s4)cc3OC[C@@H]2C)cc1 | inactive | inactive | inactive
C[C@@H]1CCCCO[C@H](CN(C)Cc2ccc3c(c2)OCO3)[C@H](C)CN([C@@H](C)CO)C(=O)c2cc(NC(=O)c3ccccc3)ccc2O1 | inactive | inactive | inactive
